# The other results are listed elsewhere or left out. At the low end of the ranking the order means little.
# System: T1, GST-NbGlk1(82-244)
# T1 sequence: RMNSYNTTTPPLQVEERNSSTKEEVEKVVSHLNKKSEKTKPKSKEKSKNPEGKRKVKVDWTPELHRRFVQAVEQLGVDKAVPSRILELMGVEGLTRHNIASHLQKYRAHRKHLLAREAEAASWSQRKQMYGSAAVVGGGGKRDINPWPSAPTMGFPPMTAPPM
# Assay: protein-binding microarray;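 further: rank-based score ranging −0.5 to +0.5 with E above 0.45 taken as significant binding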
# Settings: NbGlk1 is a Golden2-like transcription factor of Nicotiana benthamiana; high values mean tight binding; most listed sequences are background and not binding sites; double strand, one strand shown
row,Sequence,binding signal [E-score]
1,ATCGAGCA,0.0859
2,AAAACGGC,-0.102
3,AGCTTGTG,-0.215
4,AAAATCAT,0.302
5,ACTACACC,-0.0911
6,AACAGCCG,-0.229
7,ATATTTTA,0.311
8,ACCGACCC,-0.251
9,AAGTTTTA,0.051
10,ATAATACG,0.123
11,ACGTATCC,0.292
12,AAGTGAGG,-0.0645
13,AGTTGAGA,0.08
14,AAGGCGCT,-0.147
15,ATTACATG,0.293
16,AGAATGCC,-0.231
17,AAGATAGG,0.0264
18,AGCGTCGA,-0.0694
19,ACGCACCC,-0.138
20,ATGACCAA,-0.0544
21,ATCCGGAA,0.332
22,ACACTCGT,-0.123
23,AGACAACA,-0.122
24,AGGCATCA,0.065
25,ACGAAACG,0.00984

row,Sequence,binding signal [E-score]
1,ACAGTACC,-0.0837
2,ACCTTGCG,-0.0467
3,ACTATGTA,0.0595
4,AATCGTCG,0.322
5,AGAGATCG,0.303
6,ACTACATA,-0.00843
7,AGACGGCA,-0.145
8,ACCGAGAA,0.0135
9,AGAAAACA,0.0163
10,ATAATTAA,0.0602
11,AAGATTTG,0.393
12,AGGTAGGG,-0.0834
13,ATAGTATC,0.158
14,ATGATAGG,-0.057
15,ACACCATC,-0.115
16,ATCGATAA,0.144
17,ATGCGCTA,0.0334
18,CAGCAACG,-0.167
19,AGCTAGCG,-0.143
20,AAAAGAGC,-0.092
21,AAACCTCA,-0.146
22,AAAGTCAT,-0.0932
23,ACTCGGAA,-0.0244
24,AAAAAATA,0.193
25,ACACCTCA,-0.00513

row,Sequence,binding signal [E-score]
1,AAAAAGTA,-0.0658
2,AAGAGTGG,-0.136
3,AGGGCCTC,-0.215
4,AACAACTA,0.14
5,AAGTCGTC,-0.148
6,AGCTAGAC,-0.176
7,AACTACTG,0.118
8,AGGTTATG,-0.155
9,AAGGAGGC,-0.299
10,AGTCGGAA,-0.0961
11,AGAACGTG,-0.014
12,AGTTGCCA,-0.202
13,AGAATGAC,-0.0922
14,ATCGTAGG,0.0991
15,AGACCACG,-0.279
16,AGACCCGA,-0.215
17,ATTACCAC,0.255
18,ATCCCCTA,0.276
19,AGTCGGAC,-0.0438
20,ACATGAGC,-0.0676
21,ACTTTAAC,0.0382
22,ATATAGGC,-0.0319
23,ACAATAGC,0.0546
24,ACGTGACT,-0.142
25,ATCCGCCC,0.197

row,Sequence,binding signal [E-score]
1,ACAGGCTA,-0.0619
2,ATTTATTG,0.216
3,AGTTCTTC,-0.101
4,AGGTTCAT,-0.169
5,ACAGTCTC,-0.273
6,AGTGGATC,0.202
7,ACCCGGTA,-0.141
8,CACGATTC,0.371
9,AGGTAGTG,-0.0573
10,AGACAATG,-0.0389
11,AGGCGCTG,-0.0951
12,AGGCCCGC,-0.191
13,AGACGTTG,-0.113
14,AAGCAAAG,-0.153
15,ATTAAGAG,0.103
16,ACATGCGC,-0.157
17,CAAAACAA,0.0855
18,CACAGGGA,0.0183
19,ATCTCGTA,0.376
20,AACGTCCG,-0.216
21,CAAAACAG,0.0913
22,AACAAGTC,-0.115
23,CACATAGC,-0.222
24,AGATCGTG,0.339
25,AAGGAAGG,-0.182

row,Sequence,binding signal [E-score]
1,ATTCTTGA,0.221
2,ACCAGTGC,-0.188
3,ATTCTATA,0.284
4,ACCTATCC,-0.143
5,ACGCCACA,-0.097
6,CAACATAG,-0.0213
7,CACGTTAC,-0.0963
8,ACCGAAGG,-0.075
9,ATCCGAGA,0.308
10,AAGATGCT,-0.0571
11,ACTGACAG,-0.156
12,AGTTTTTG,0.0244
13,ACCGAACT,-0.194
14,ATGTAATC,0.462
15,AGCGCACT,-0.115
16,CACGAGAA,0.0453
17,CACTAACA,0.0374
18,CACTCTGA,0.0301
19,ATTTAACG,0.0836
20,AACATCCT,-0.0858
21,ACCCTCTG,-0.216
22,AACTTGAC,-0.0515
23,CACACCGA,-0.0642
24,ACTCGTTA,-0.0219
25,AGCCAACT,-0.16

row,Sequence,binding signal [E-score]
1,CAGACGAA,-0.0401
2,AAGCTGCT,-0.308
3,ATGGGATA,0.243
4,ATCGAGGG,0.0431
5,AATTTAAC,0.0456
6,CAAAACCG,-0.0304
7,AAATAGTC,0.0169
8,ATTCCCCC,0.37
9,AGTGCTAC,-0.0787
10,AAGATGTA,0.00254
11,ACTCGCCA,-0.162
12,AAGTTTCG,-0.0252
13,ACTGCCAG,-0.224
14,ATGAGGCA,-0.194
15,CAAGTTAG,-0.0641
16,AATACTGC,0.0862
17,AAGTGACG,-0.0349
18,AGTTCGGA,-0.0277
19,AACGCCCC,-0.313
20,AGACAAGC,-0.161
21,AGACTAAG,0.0551
22,AACTTTTG,-0.161
23,AGGCGCCT,-0.256
24,AACCAGGG,-0.132
25,ATACGGGA,0.117

row,Sequence,binding signal [E-score]
1,AATTTACC,0.155
2,AGTCTCAC,-0.173
3,ATGATTAA,0.134
4,ACTAATGC,-0.113
5,ACATATGC,-0.0342
6,AATAGTAA,0.208
7,AGTAGGAG,-0.002
8,CACACATC,-0.116
9,CACCGACG,-0.308
10,ATGCAGTA,0.0875
11,ACTCCCCA,-0.198
12,AGGGGGTA,-0.209
13,CAATTGTA,0.00564
14,AGCCATCC,-0.23
15,AAAGTGCT,-0.161
16,CAAACGGC,-0.166
17,AAAACTCC,-0.109
18,AATCATAA,0.285
19,AGGTACAA,-0.0644
20,ATTGGAAC,0.0354
21,ATGAACTA,-0.191
22,AGGCGTCC,-0.249
23,ATTAGACA,0.0562
24,CAAGATTG,0.308
25,ATCGAATA,0.235

row,Sequence,binding signal [E-score]
1,ACGAAACA,-0.05
2,AGTCTGAT,0.0552
3,ATGCTGCG,-0.0766
4,AAAAGCCT,-0.076
5,AAGGAGGT,-0.134
6,AACAATGT,0.0236
7,ACCAGTGG,-0.2
8,CAAGTCAC,-0.0658
9,ATCAAGAC,0.191
10,ATGGCCTA,-0.124
11,ACTCTTCA,-0.181
12,ATAATCAA,0.216
13,AGGTATAC,-0.106
14,AAATTTAT,0.22
15,ACAACATC,0.148
16,ACGAGCCT,-0.189
17,ACAGTGGT,-0.161
18,ACTGTGCG,-0.0753
19,ATTTTAGG,0.166
20,AGCATGAC,-0.249
21,CAAGGCTA,-0.341
22,AGATAACA,0.0981
23,ATGGGAAG,-0.15
24,AGGCTGGG,-0.18
25,AATGCTAT,0.0771

row,Sequence,binding signal [E-score]
1,AAGAGCAT,-0.117
2,ACTCTGAA,-0.0906
3,AACCGCGT,0.0236
4,AGCCGACA,-0.142
5,ATCTCTTG,0.379
6,ACCATATC,0.319
7,CAACAAGC,-0.0726
8,AACCACGC,-0.0885
9,CACCGGTC,-0.18
10,AGATACCC,0.352
11,CAACGAGG,-0.0756
12,AATCAGTC,0.159
13,AGCATGAA,-0.0657
14,ACTGTCAT,-0.0801
15,AGCTGACT,-0.227
16,AAACCAAC,0.0899
17,AGAGCAGA,-0.0466
18,AACACGAG,-0.00728
19,AACTGTAT,-0.0473
20,CACGTCAG,-0.169
21,ACACTGCA,-0.0524
22,AGTGATTG,0.153
23,ATCGTAAG,0.172
24,AGAGTTCC,-0.223
25,AGTTAAGC,-0.142

row,Sequence,binding signal [E-score]
1,ACTCTTAA,-0.0344
2,AGTCGCCG,-0.274
3,AACTCCGG,-0.142
4,AGTATTAA,-0.0267
5,ACCGGTTA,-0.0559
6,AACTGCAG,-0.159
7,ACCCCTTG,-0.18
8,ATACGAGA,0.231
9,ACAAAAAA,0.224
10,ATTTCGTA,0.399
11,AAATACTT,0.149
12,ACGATCGG,0.154
13,AGACATGG,-0.0128
14,CACGCCAG,-0.23
15,ATCGATCC,0.0645
16,ATCCCATC,0.176
17,AACCGGTA,-0.1
18,AGTCCACC,-0.244
19,ATGAATGC,-0.035
20,AATGAGGT,0.042
21,ACACCCGT,-0.158
22,AGATTGAT,0.13
23,ACACATAT,0.168
24,CAGCGCAG,-0.158
25,AGGAGATA,0.228

row,Sequence,binding signal [E-score]
1,ACGCCCAT,-0.216
2,AGCTCTCA,-0.122
3,AACCATGT,-0.0886
4,ACGGGTAG,-0.0863
5,AGCCTTGC,-0.394
6,AGGGATAG,-0.0799
7,ATTGTTGA,-0.0209
8,AGCTCGTC,-0.208
9,AACACACA,-0.0394
10,AAGTCAGT,-0.0101
11,AACGTGTA,-0.105
12,ACCAACAG,-0.0883
13,AATCGGTG,0.184
14,ATCATGTG,0.131
15,AGGCCGGG,-0.329
16,ATTCATAG,0.0968
17,AACATAAT,0.233
18,AGTCCGAA,-0.066
19,AAGGTTGA,-0.057
20,AATAAGAT,0.3
21,ATTCCATC,0.151
22,ACATTAGA,0.141
23,ATCACTCG,0.0719
24,ACACGTTA,-0.0247
25,AATTCCAT,0.155

row,Sequence,binding signal [E-score]
1,CAATCGGC,0.0817
2,CAACAATG,0.0445
3,ATGAAATG,-0.0458
4,AAATAGTA,0.0113
5,AGCTAAGC,-0.168
6,AATGGACT,-0.167
7,ATTCGAAG,0.135
8,AGTTACTC,-0.0457
9,CACTCCAG,-0.152
10,CACAAGGA,-0.0555
11,AGGGGATC,0.316
12,AGGGCACA,-0.209
13,AACATTGA,-0.0186
14,ATACCGGC,-0.0511
15,AAGAGTAT,0.153
16,AGAAGTAC,-0.19
17,ATTTTGGA,0.3
18,ATTGGTTC,-0.0747
19,AAATGCAG,-0.0399
20,AAATCACG,0.381
21,AACCATAC,-0.104
22,ATGATTAC,0.302
23,AGAAGCCG,-0.277
24,ACGTCGTC,-0.0957
25,ATGGGACC,-0.264

row,Sequence,binding signal [E-score]
1,ATTTACAC,0.193
2,AAACTAGT,-0.0599
3,ACAGATAG,0.0125
4,AGGATTTA,0.193
5,AATACAGG,0.15
6,AACCACGG,-0.124
7,AGTGGTTC,-0.0698
8,AGCTGCTC,-0.302
9,ACGCCAAG,-0.0875
10,ACACTACA,0.0864
11,CACACCTA,-0.0689
12,AATAGATT,0.406
13,ACGATGGC,-0.109
14,AATGGATA,0.3
15,CACGTCTA,-0.222
16,AGTTCGAA,0.00087
17,AGGTCGAA,-0.142
18,ATAAGGTG,-0.0935
19,AATTTTCG,0.198
20,AAGCTAGT,-0.147
21,AGATCACG,0.26
22,ACCCCGCA,-0.0991
23,AGACTGCA,-0.128
24,AAGGTATG,0.0486
25,AGCAGCCC,-0.307

row,Sequence,binding signal [E-score]
1,ACGATAAC,0.0739
2,AGGCAATC,0.417
3,ATAGATTG,0.327
4,ATCGAGTG,-0.0298
5,ATCTGCGC,0.317
6,AAGGATGG,-0.12
7,ACAGGTCC,-0.255
8,ATGCGATG,0.0323
9,CAACATTA,0.029
10,AGCCGCAC,-0.156
11,ATTGACCC,-0.262
12,CAACTCAG,-0.0133
13,ACTAGAGA,-0.0483
14,ATTGCATG,0.221
15,AATGGAAG,-0.199
16,ACTAGAGG,-0.0997
17,AACACAGA,0.00497
18,ACGCCCGT,-0.108
19,ACGAACTA,-0.0769
